The results in this text go back to ChEMBL document CHEMBL4888484, “Replenishing the malaria drug discovery pipeline: Screening and hit evaluation of the MMV Hit Generation Library 1 (HGL1) against asexual blood stage Plasmodium falciparum ,using a nano luciferase reporter read-out” (2022).

Broadly, the % Inhibition is the relative decrease from the control value, in per cent.

SMILES strings stand for the structures. In all, about 150,000 compounds went through this assay and about 540 (0.36%) showed an effect of 50% or more. The list shows a part of the results.

The test system of the experiment is Plasmodium falciparum. Put plainly: Primary screen in NF54 nanoGlo assay, in single point, at 2uM, 72h; a lower Z score goes with more inhibition. As to conditions: timepoint 72 hour. Type of experiment: functional, Erythrocyte.
With `O=C(CCN(CCc1ccccc1)c1nc(C2CC2)nc2ccccc12)Nc1ccccc1`, the “% Inhibition” value stood at 0% and the Z score is given as -0.06.

Consider `CN1[C@@H]2CC[C@H]1CN(C(=O)c1sccc1S(N)(=O)=O)CC2`, for which the “% Inhibition” value is listed as -17% and the Z score was found to be 1.71.

Turning to `CC1CC(C(=O)Nc2cc(F)c(F)cc2N2CCOCC2)CC(C)O1` (centres undefined), the “% Inhibition” value was -10% and the Z score stood at 0.88.

Consider `CCc1nc(Cn2ccnc2-c2ccc3c(c2)CCN3C(C)C)no1`, for which the “% Inhibition” value is on record as -7% and the Z score was 1.22.

Turning to `CC(=O)N1CCC(c2nc(C(C)C)cs2)CC1`, the “% Inhibition” value is listed as -6% and the Z score came out at 0.97.

`CC(C)(C)n1cc(C(=O)NC2CCN(Cc3ccccc3)CC2)nn1`: the “% Inhibition” value is reported as -5% and the Z score is given as 0.86.

Take `COCCCOC1CN(c2nc(C)cc(C#N)n2)C1`: the “% Inhibition” value is -4% and the Z score stood at 0.56.

For the compound `Cc1c(Cl)cccc1NC(=O)c1sccc1S(=O)(=O)N1CCc2ccccc2C1`, the “% Inhibition” value is 1% and the Z score is recorded as -0.1.

Regarding `Cc1noc(-c2cccnc2N2CC[C@H](N3CC=CC3)C2)n1`, the “% Inhibition” value is reported as -6% and the Z score came to 0.85.

In the case of `NC(=O)c1csc(CNc2nc3ccccc3s2)c1`, the “% Inhibition” value is reported as -12% and the Z score stood at 1.7.

Turning to `Cc1cccc(N2CCN(C(=O)NCc3nc(C(C)C)no3)CC2)c1C`, the “% Inhibition” value is recorded as 7% and the Z score is listed as -0.93.

For `CCn1nc(C)c(C(=O)Oc2cc3cnccc3cc2OC)c1Cl`, the “% Inhibition” value is recorded as -8% and the Z score is listed as 1.3.

Turning to `O=C([C@@H]1C[C@@H]2OCC[C@@H]2N1)N1CCN(Cc2ccc(Br)cc2)CC1`, the “% Inhibition” value was determined as 1% and the Z score was -0.14.

On to `O=C(CN1CCC(O)CC1)NC1CCCCCC1`, for which the “% Inhibition” value stood at 5% and the Z score is on record as -0.73.

As to `O=C(Cn1nc(-c2ccc3c(c2)OCCO3)ccc1=O)N(c1ccccc1)c1ccccc1`, the “% Inhibition” value is given as -25% and the Z score turned out to be 2.2.

As for `C=CCOC[C@@H](O)CN(CCOC)Cc1c(-c2ccccc2)noc1N(C)C1CCCCC1`, the “% Inhibition” value is reported as -5% and the Z score was determined as 0.65.

Turning to `CNC(=O)CN(C)Cc1c(C)cc(OC)c(C)c1C`, the “% Inhibition” value is recorded as -10% and the Z score is 0.92.

Regarding `CCOC(=O)c1ccc2nc(C(F)(F)F)nc(N3CCN(c4cccc(Cl)c4)CC3)c2c1`, the “% Inhibition” value is on record as 9% and the Z score was -1.19.

With `COc1ccc(N(Cc2ccco2)C(=O)c2ccc(Br)o2)cc1`, the “% Inhibition” value is given as 5% and the Z score is recorded as -0.61.

With `CCN(c1ccccc1)S(=O)(=O)NC(=O)CCc1ccoc1`, the “% Inhibition” value was -4% and the Z score came to 0.4.

For the compound `Cc1ccc(Cc2nc(N3CCN(S(C)(=O)=O)CC3)c3c(C)nn(-c4ccccc4)c3n2)cc1`, the “% Inhibition” value is given as -21% and the Z score amounted to 2.49.

`CN(Cc1cn2ccccc2c1C#N)[C@H]1CCS(=O)(=O)C1`: the “% Inhibition” value was -8% and the Z score came out at 1.2.

On to `Cc1ccc2c(c1)CN(C(=O)CCCCc1ccccc1)C[C@H](C)O2`, for which the “% Inhibition” value was found to be 3% and the Z score is -0.49.

As for `Cc1onc(C(=O)N2CCC[C@H](c3nc(C4CCOCC4)no3)C2)c1Cn1cc(Cl)cn1`, the “% Inhibition” value was -8% and the Z score is given as 0.98.

For the compound `FC(F)(F)c1cc(NC2CCOCC2)ncn1`, the “% Inhibition” value is given as -13% and the Z score is 1.43.

`COC(=O)C1C2CCC(C2)C1NC(=O)Nc1cc(C)n(C)n1` (centres undefined): the “% Inhibition” value amounted to 3% and the Z score is given as -0.42.

`COc1ccc(CCNC(=O)c2cnc(N3CCN(c4ccccc4)CC3)nc2OC)cc1OC`: the “% Inhibition” value was 2% and the Z score is -0.33.

In the case of `N#CCCN(Cc1ccco1)CC1CCCC1`, the “% Inhibition” value is listed as 2% and the Z score was -0.32.

`Cn1cc(S(=O)(=O)Nc2ccc3c(c2)CCC(=O)N3)cn1`: the “% Inhibition” value is recorded as -6% and the Z score turned out to be 1.11.

Turning to `C=CCNC(=O)c1ccc(NCc2ccncc2)nc1`, the “% Inhibition” value is reported as -3% and the Z score was found to be 0.39.

For the compound `CN(C)C(=O)C[C@H](O)c1cc2n(n1)CCN(Cc1cccc(C#N)c1)C2`, the “% Inhibition” value amounted to 7% and the Z score was -1.14.

With `Nc1c(Cl)cc(C(=O)NC2CCCC3OCCC23)cc1Cl` (centres undefined), the “% Inhibition” value stood at 0% and the Z score is given as -0.05.

For `COCCNC(=O)c1cn(-c2cc(-c3nc(C)no3)ccn2)cn1`, the “% Inhibition” value was -9% and the Z score came to 1.18.

`CC(CO)(CO)NC(=O)c1cnn2c1OCCC2`: the “% Inhibition” value was -11% and the Z score amounted to 1.64.

With `Cc1nc2ccc(-c3ccccc3)c(O)c2n1C`, the “% Inhibition” value was -4% and the Z score was determined as 0.52.

For the compound `CC(C)(C)OC(=O)N1CCN2C(=O)c3ccccc3OCC[C@@H]3CC[C@@H](NC(=O)C4CCOCC4)[C@@H](CNC(=O)[C@@H]2C1)O3`, the “% Inhibition” value was found to be 11% and the Z score was -1.22.

Take `CCOCCN1CC(OC(=O)c2ccc3c(c2)OCCCO3)C1`: the “% Inhibition” value is on record as -1% and the Z score came out at 0.1.

In the case of `COC(=O)C1CN(CC(C)(O)CN(C)C(=O)OC(C)(C)C)CCO1` (centres undefined), the “% Inhibition” value is -12% and the Z score turned out to be 1.3.

Regarding `N#Cc1cccc(CN2C[C@@H]3C[C@H](C2)c2ccc(NS(=O)(=O)c4cccc(F)c4)c(=O)n2C3)c1`, the “% Inhibition” value came out at 5% and the Z score is -0.63.

Regarding `COc1ccccc1CCC(=O)N1CCC(Cc2nncn2C)CC1`, the “% Inhibition” value is reported as -2% and the Z score amounted to 0.46.

For `O=C(NCc1ccc(-c2ccc3c(c2)CCO3)cc1)c1ccc(O)nc1`, the “% Inhibition” value is recorded as -9% and the Z score came out at 0.95.

`CC(C)CS(=O)(=O)N1CCC(N[C@@H](C)c2ccc3c(c2)OCCCO3)CC1`: the “% Inhibition” value amounted to 4% and the Z score is listed as -0.59.
